Results as given in PubChem BioAssay AID1745853 (National Center for Advancing Translational Sciences (NCATS), 2022).
The other results are listed elsewhere or left out. Shown are side measurements of this screen, not its main read-out; they come without a call.

Key:
Test in all cases: Primary Screen for Target Class Profiling of Small Molecule Inhibitors of Methyltransferases
[1] = molecular target: Glycine N-methyltransferase (Homo sapiens) (UniProt Q14749); settings: purified enzyme, MTase-Glo SAH luminescence; measured here: GNMT inhibition; at 40 µM; stronger effect = lower value
Procedure, shortened: (§1)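 Each enzyme was assayed with SAM and its substrate. SAH formation detected by MTase-Glo luminescence; single-point 40 uM screen[…].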

[2] = molecular target: Guanidinoacetate N-methyltransferase (Homo sapiens) (UniProt Q14353); settings: purified enzyme, MTase-Glo SAH luminescence; measured here: GAMT inhibition; at 40 µM; stronger effect = lower value
Procedure, shortened: as §1

[3] = molecular target: Histamine N-methyltransferase (Homo sapiens) (UniProt P50135); settings: purified enzyme, MTase-Glo SAH luminescence; measured here: HNMT inhibition; at 40 µM; stronger effect = lower value
Procedure, shortened: as §1

[4] = molecular target: Nicotinamide N-methyltransferase (Homo sapiens) (UniProt P40261); settings: purified enzyme, MTase-Glo SAH luminescence; measured here: NNMT inhibition; at 40 µM; stronger effect = lower value
Procedure, shortened: as §1

[5] = molecular target: Phenylethanolamine N-methyltransferase (Homo sapiens) (UniProt P11086); settings: purified enzyme, MTase-Glo SAH luminescence; measured here: PNMT inhibition; at 40 µM; stronger effect = lower value
Procedure, shortened: as §1
On the % scale 0 is the no-effect control and ±100 the full control effect.

SMILES | activity change, negative = inhibition [1] [%] | activity change, negative = inhibition [2] [%] | activity change, negative = inhibition [3] [%] | activity change, negative = inhibition [4] [%] | activity change, negative = inhibition [5] [%]
Fc1cnc(N2CCCC(OCc3cccnc3)C2)nc1N1CCOCC1 (configuration not stated) | -7.35 | -9.9 | -2.1 | -15.5 | -10.3
O=C1C[C@@]2(C(=O)N1)C(=O)N(Cc1ccc(Br)cc1F)C(=O)c1cccn12 | -5.4 | 2.27 | 3.92 | -14.7 | -2.39
O=c1[nH]nc2n1CCN(C1CCOCC1)CC2 | -4.8 | -1.86 | -0.074 | -5.35 | -3.52
O=C(NCc1ccco1)NC1CCc2nnc(C3CC3)n2CC1 (configuration not stated) | 3.52 | -1.6 | 0.677 | -4.56 | 1.72
CC(C)Oc1ccc(CN2C(=O)c3cc4occc4n3CC2(C)C(=O)NC2CCCCC2)cc1 (configuration not stated) | -8.66 | 5.88 | -3.86 | -6.93 | -4.67
Cc1nc2sccn2c(=O)c1CCN1CCC(=C(c2ccc(F)cc2)c2ccc(F)cc2)CC1 | -3.28 | 9.23 | -6.51 | -37.4 | 4.6
CN1CCN(Cc2ccc(-c3cnc4[nH]cc(-c5ccc6[nH]ccc6c5)c4c3)cc2)CC1 | -29.7 | 2.87 | -48.8 | -32.4 | -19.9
COc1cccc(S(=O)(=O)N2CCC3(CCCCO3)CC2)c1 | -11.7 | -11.4 | 1.61 | -15.1 | -8.15
COCCCNC(=O)c1cc2n(n1)CC(C)(C(=O)NCc1ccccc1)N(C)C2=O (configuration not stated) | -1.84 | -1.55 | -0.055 | -3.04 | -4.83
CCC(C)/C=C(C)/C=C/C1=CC2=C(Cl)C(=O)C(C)(OC(C)=O)C(=O)C2=CN1CCCCC(N)C(=O)O (configuration not stated) | -0.107 | -0.916 | -2.02 | -13.1 | -0.008
O=C(c1cccs1)N1CCc2[nH]nc(-c3cccc(F)c3)c2C1 | -14.3 | -2.4 | -6.95 | -20.8 | -4.36
CC(OC1OCCN(Cc2n[nH]c(=O)[nH]2)C1c1ccc(F)cc1)c1cc(C(F)(F)F)cc(C(F)(F)F)c1 (configuration not stated) | -0.146 |  | 11.8 |  | 
Cc1ccccc1CNC(=O)C1(C)Cc2ccccc2C(=O)N1Cc1cc(F)cc(F)c1 (configuration not stated) | 13.3 | 0 | 11.9 | 2.98 | 9.22
CCN1CCN(C(=O)C2CCCN(Cc3ccncc3)CCC(=O)NCC2)CC1 (configuration not stated) | -2.73 | -1.88 | -1.49 | -0.48 | 2.79
COc1ccc(C2(C(=O)N3CCC[C@H]3c3nc(-c4ccccc4Cl)no3)CC2)cc1 | -5.83 | -5.86 | -5.5 | -12.7 | -5.87
COc1ccc(C(=O)N2CCC(N3Cc4cnc(C)n4C3=O)CC2)cc1 | -6.03 | -6.49 | -2.83 | -12.3 | -9.22

SMILES | activity change, negative = inhibition [1] [%] | activity change, negative = inhibition [2] [%] | activity change, negative = inhibition [3] [%] | activity change, negative = inhibition [4] [%] | activity change, negative = inhibition [5] [%]
CCOc1ccc(CCN2C(=O)c3cc4ccccc4n3CC2(C)C(=O)NCCC(C)C)cc1OCC (configuration not stated) | 2.34 | 4.54 | -0.593 | -2.97 | -2.54
Cc1ccc(C)c(S(=O)(=O)c2nnn3c2nc(NCCc2c[nH]c4ccccc24)c2ccccc23)c1 | -8.07 | 1.08 | -9.2 | -11 | -9.48
O=C(NCC(O)CO)c1ccncc1Nc1ccc(I)cc1F (configuration not stated) | -0.688 | 3.43 | 11.9 | -9.2 | 1.56
Cc1oc(S(=O)(=O)N2CCCCC2)cc1NC(=O)Nc1ccccc1 | 2.8 | 3.78 | 8.53 | -10.2 | -0.664
C=C1C(=O)[C@@]23C(CC[C@@H]1[C@H]2O)[C@@]12CO[C@]3(O)[C@@H](O)[C@@H]1C(C)(C)CC[C@@H]2O (some centres not stated) | -2.52 | 2.22 | 1.73 | -14.3 | -4.35
CCCCN1C(=O)c2cc(C(=O)Nc3ccccc3Cl)nn2CC1(C)C(=O)NC1CCCC1 (configuration not stated) | -1.05 | 3.73 | -14 | 2.96 | 3.48
COCC(=O)N[C@H]1CCN(C(=O)COC)[C@H](C(=O)N[C@H](Cc2ccccc2)C(N)=O)C1 | -1.78 | -6.53 | -1.11 | -3.26 | -0.996
COC(=O)c1ncn2c1C(=O)N(Cc1ccc(OC)cc1OC)C(C)(C(=O)NC1CCCCC1)C2 (configuration not stated) | 4.88 | 1.06 | 1.5 | 0.387 | 4.66
COc1ccc(OC)c(S(=O)(=O)NCC2CNCCOC2)c1 (configuration not stated) | -2.84 | 0.91 | -2.96 | -2.18 | -5.08
CCOC(=O)Cc1c(-c2ccccc2)c2cc(C)ccc2[nH]c1=O | 0.599 | 0 | 7.82 | 11.8 | 1.12
O=C1CCC=CC1(O)C(=O)OCc1ccccc1O[C@@H]1O[C@H](CO)[C@@H](O)[C@H](O)[C@H]1O (some centres not stated) | -2.24 | -12.8 | 3.97 | -25.1 | -11
CN1CCN2c3ccccc3Cc3ccccc3C2C1 (configuration not stated) | 3.65 | 11.4 | 8.39 | -11.6 | -1
O=C1NCCOCCN(C(=O)NC2CCCCC2)[C@@H]2CCCC[C@H]12 | -3.07 | -4.97 | -0.753 | -1.44 | 3.14
CCN(Cc1ccccc1)C(=O)CN(C)S(=O)(=O)c1ccc2[nH]c3c(c2c1)CCCC3 | -1.14 | 4.37 | 1.42 | -4.77 | -1.23
O=C(Cc1ccsc1)Nc1ccc2c(N3CCCC3)ncnc2c1 | -27.2 | -16.7 | -87.6 | -25.3 | -15.1
